According to paper PMC10726135:
Some of the results follow. At the low end of the ranking the order means little. The protein was read in a cell extract, so binding may be indirect.

biological target: T1, HNF4alpha8 (COS-7 nuclear extract) (UniProt P41235-5); assay: protein-binding microarray; details: COS-7 nuclear extract on double-stranded Agilent 4x180k PBM; binding buffer, salt, pH and temperature not given; high values mean tight binding; double strand, one strand shown; sequences stand for … in …GCCTAGGGAGATTAGAGTATCGGTCGA
T1 sequence: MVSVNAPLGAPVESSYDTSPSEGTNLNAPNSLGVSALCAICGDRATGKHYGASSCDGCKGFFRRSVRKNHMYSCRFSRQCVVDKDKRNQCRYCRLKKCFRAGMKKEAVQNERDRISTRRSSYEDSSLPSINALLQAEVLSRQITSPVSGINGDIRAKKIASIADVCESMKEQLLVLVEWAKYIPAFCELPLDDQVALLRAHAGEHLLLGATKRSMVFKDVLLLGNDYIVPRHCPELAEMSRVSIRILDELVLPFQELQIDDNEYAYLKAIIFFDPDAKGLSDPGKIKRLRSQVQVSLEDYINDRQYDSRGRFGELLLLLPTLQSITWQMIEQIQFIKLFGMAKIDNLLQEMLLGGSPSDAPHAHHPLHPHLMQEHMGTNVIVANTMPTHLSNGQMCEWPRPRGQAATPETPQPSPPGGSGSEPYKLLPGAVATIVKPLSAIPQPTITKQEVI

Sequence	binding signal (log2 normalized intensity)
TGAGGCCCCAGTGTCAATTCTCATTCATCC	-0.101
AAAATAGCCAAAATAAAGCAGCAAACCAGA	-1.36
ATCAGCGTTGAGCCTTTTGTCCCAAGGAGA	0.69
GGGAGATCTTCAGTAAGAGGATTTCTTCGC	-1.26
CACTGAGATAAAAATGGCCAAAGGTTGCCA	2.84
GAATTTCAGAAGCAGGTCAATAGGGCAGGG	3.03
TATCTGTTTATTTTGCAATTAACAAAGAGA	0.493
GGAAGGGAGAGATAAGAAAAACTGAGCTTT	-1.25
ATCCAGAGGTCACCCAGAGCGTCCCACCTG	-0.956
GCAAACTATGTGAGGAATCTAAGATAAGCA	-1.14
CAGGCTGTTTTCCTATAGATTTGTTAAATC	1.38
GTTCGATAAAAAACAATTTACAACCTGCTC	-1.4
TTGCAGAAGGCAGCCAAACAGAGGCTGAAA	-1.28
AAGGTATCCTCCTAGAGTCCAAGGTATAAA	2.65
GGGGGGTGGGGTGGAAGCTATGCCTGAGGC	-1.29
GAACCAAGAGAGCCATTGGTGTAACTCTGG	-1.21
CTTAAATTGTGCTGTGTCAGAGTTGTCCTG	2.11
AAGGCCAAGCCAGTTTCCAGGGAGGAGAGA	-1.26
GAATGGAGACACACCTGCGGTGACTGGAAG	-1.34
AAGACTCAGTCGGCTGTCAAATCACTGAAG	-1.34
AAGAAGAGCCCAGACAAGCATTCTGCTGAA	-1.2
TCACATACCAGTAAAAACAACTGCCACTTA	-1.3
TGAAGTCATATTGAACTCACTGACTTCCAT	1.29
CCTAAGGCCTCCAGAAGGAATGCAGCCCTG	-1.33

Sequence	binding signal (log2 normalized intensity)
CCAAAATGTGTTAGGCAAGCAAACTGCAAA	-1.23
ATATTTGCCAAGTGATAAGGAACCTAGGAA	-1.33
GGGGGTGAGTCAGTCCCCAGCAATTGGGAA	-1.18
AATGGACAACGGAAAGACAGAGGTGAGGCT	-1.34
GTGCAGTGATCAATCAGCAGCAAAGTCCTG	-1.22
CCCTTCCTCGGTGGAGTTGACACAGACCTG	-0.0209
TGCAGTATGCCCCCCCACCCCACACACACA	6.83
CGGAGCGCGCGGGAGGAGGAGACAAAGGCC	2.44
GTATGTGAATGCCTGGGCATGGCTGTGTTC	1.36
AGGCTGGGGCCCCATCGACCTTTGCTCCCG	10.5
CAGTGGACTTTGTCCTTCATCTATCTCCTT	5.95
AGGCCATAGGGAAAGATAAAAAAGTTCCAG	-1.42
GCTAATGAGCACATTCTTCAATATCAGTGG	0.488
TCAGCGGCCCTGTGCTGCCCCCGATAGCAC	4.82
CACTGGAGGTTGAATTCCAAAGGTTATTTT	4.12
CCCACCTCCGGCCGGGAAGATGCCAGCCCC	2.68
ATAGATAAGCACACTAAGGCTAAAGATTAC	-1.3
AAACATTAGCCAGGATCAGATTTGATAGCT	-1.39
TTTATTCAGGTGGCCACTGGCCCAGCGGAT	-0.502
GGTATGTTTGTGATATTGTGAAATATATAT	1.86
TCTCTTTTAGGCTGTCAGCCACCAAAGCAG	-1.28
AACATTTTTGCAACATGAGGAGCCAAGTTT	-0.993
GAGCATCCAGATAAAGCTGAAGAAAGCAGG	-1.3
CCAATGGCTAAGGTCACCATGACCATAAAC	0.466

Sequence	binding signal (log2 normalized intensity)
TCTGCAGACATGGACTCTGGGATCTCAGGG	1.82
CAGTTTGACCTTTGCATTCTTACCCAAGCC	5.1
CTGTGCCATGCTTTTCAGTGCAAGGGACCT	0.742
TGATCTACAGTCAGAGGCCTGAAGGCCCCC	1.97
TATCTTCAAAGCCAGCAACGGTGAGTCAAG	-0.794
GAGAAAGGGGCTTAGGGAGGGTGAAGGTCA	3.29
CCCCAGGCTGAGCGTGAACACCGGCCCCCT	4.08
AAGTGGCTCACCCAAGTCACACAGTTAGAA	-1.2
AAACTTCCACTAACTTGAGTGTGCACCCTG	1.93
CAAAGTGGAATTTGAACCTACACCTATGTG	4.42
TTGAAGCAGAGTGTCCCATATCACATTTTA	0.668
ACCAGAGGGAAGAGATCATGGCCGATCGAC	-1.3
CCACAGCCCAACTCGGAGGACTGAGCCCGC	-1.31
TCCTAGTCTTTAGAGTAACCATTCTTTCTG	0.704
TAACTCTCCAAATTCCAGGATCCAAGATCC	-1.3
TGAGACTGCCTCAAACAGCTTCGCCTCCTC	-1.33
CTTCAAAGGAGTGGAGGAAGGAAGAAGTGT	-1.35
GCAGAAGGTCAGGTGAATCAACGATAAGGG	-1.35
CCACAAGGGGGGAGCACCTCCCAACGTGCC	-1.43
GTTTAGTGAGCTGTCTAATTTTGCACAGCC	-1.09
GATCCTCCCACTTCAGCCTCCCGAGTAGTT	2.67
CTAGACCCACATCCTGTCAGACCAAGGCTG	-1.31
CTAAACCAGGATCCAGTCCTCACCCAGAAC	0.613
TGGCAATGGCTGCAGCTCTTCCACGTGAGA	-1.35

Sequence	binding signal (log2 normalized intensity)
TCTGGCTTCTCGTGAGTATTTTTTCAACAT	-0.173
AACAAAAACCAAATCACAATTTTCAAGAAC	-1.33
GACAAAGTACAGAGCAGGTGCTCGGTGAGT	-1.29
AAAGAGTACACAAAGGTATCAGGGCTCAGG	-1.28
ACTCTAGGAACTTGTCTAAAAACATTGTGG	-0.692
CTAAGGCAGGGAAGGAGAGTGACCTCTGCT	3.47
GGGTCCTACAGAACCTCCCTCCCCATCTCC	4.13
TCTGCAAACTTCATGGCTTAAAACGACTGA	-0.618
ACTCTTTGTTATTTATTGGCCAGTAGCTCT	1.49
ACCTGTTACAAAACAGGTTCTTCCACGACT	-1.51
TTTGGAATTTGACCTCATTTGCTCCCAGTG	4.58
ACATTGTGTCAATTCCAAAGTTCAAGTAGA	4.51
ACCTTTGCCCTGGATCTTGAAGCAGAAAAC	1.68
GTGAATTTCAGTGCCCTTTGAGATTTGCAT	2.47
AGTGAGCTAAGATTGGACTCTGCACTCCAG	5.96
CAGAAAAGGTAAGTGACCCTGGTCTTTGCC	2.41
GAACTCCCTATCCCCAGATTCCAGGGGAGG	-1.34
CTGCCAGTTGTCATTTGGGGCGGGCGGTCG	1.03
TCTTAGCAGAGATTCCTGCTGAGTTATCTC	-1.29
TGAGTATCCAAAGGTCAGTGACAAATGTCA	4.51
AGGCACTGGGATCCAAAGTTCATGGAAAGT	3.29
